Measurements taken from PubChem BioAssay AID504332 (National Center for Advancing Translational Sciences (NCATS), 2011).
The whole screen tested about 350,000 compounds, of which about 31,000 (8.9%) were called active. Inconclusive means that the source gave no clear call. Such entries were picked first, then a sample of the others. Calls follow the shape of the dose curve; as a rule, active = well fitted inhibition curve with a large enough effect; inconclusive = small, poorly fitted or top-dose-only effect; inactive = no such curve, though single readings can be large or run the other way. Where the call is inconclusive, the potency comes from a doubtful curve fit.

Target: Histone-lysine N-methyltransferase EHMT2 (Homo sapiens) (UniProt Q96KQ7)
Sequence of UniProt Q96KQ7 (Q96KQ7 whole entry, looked up): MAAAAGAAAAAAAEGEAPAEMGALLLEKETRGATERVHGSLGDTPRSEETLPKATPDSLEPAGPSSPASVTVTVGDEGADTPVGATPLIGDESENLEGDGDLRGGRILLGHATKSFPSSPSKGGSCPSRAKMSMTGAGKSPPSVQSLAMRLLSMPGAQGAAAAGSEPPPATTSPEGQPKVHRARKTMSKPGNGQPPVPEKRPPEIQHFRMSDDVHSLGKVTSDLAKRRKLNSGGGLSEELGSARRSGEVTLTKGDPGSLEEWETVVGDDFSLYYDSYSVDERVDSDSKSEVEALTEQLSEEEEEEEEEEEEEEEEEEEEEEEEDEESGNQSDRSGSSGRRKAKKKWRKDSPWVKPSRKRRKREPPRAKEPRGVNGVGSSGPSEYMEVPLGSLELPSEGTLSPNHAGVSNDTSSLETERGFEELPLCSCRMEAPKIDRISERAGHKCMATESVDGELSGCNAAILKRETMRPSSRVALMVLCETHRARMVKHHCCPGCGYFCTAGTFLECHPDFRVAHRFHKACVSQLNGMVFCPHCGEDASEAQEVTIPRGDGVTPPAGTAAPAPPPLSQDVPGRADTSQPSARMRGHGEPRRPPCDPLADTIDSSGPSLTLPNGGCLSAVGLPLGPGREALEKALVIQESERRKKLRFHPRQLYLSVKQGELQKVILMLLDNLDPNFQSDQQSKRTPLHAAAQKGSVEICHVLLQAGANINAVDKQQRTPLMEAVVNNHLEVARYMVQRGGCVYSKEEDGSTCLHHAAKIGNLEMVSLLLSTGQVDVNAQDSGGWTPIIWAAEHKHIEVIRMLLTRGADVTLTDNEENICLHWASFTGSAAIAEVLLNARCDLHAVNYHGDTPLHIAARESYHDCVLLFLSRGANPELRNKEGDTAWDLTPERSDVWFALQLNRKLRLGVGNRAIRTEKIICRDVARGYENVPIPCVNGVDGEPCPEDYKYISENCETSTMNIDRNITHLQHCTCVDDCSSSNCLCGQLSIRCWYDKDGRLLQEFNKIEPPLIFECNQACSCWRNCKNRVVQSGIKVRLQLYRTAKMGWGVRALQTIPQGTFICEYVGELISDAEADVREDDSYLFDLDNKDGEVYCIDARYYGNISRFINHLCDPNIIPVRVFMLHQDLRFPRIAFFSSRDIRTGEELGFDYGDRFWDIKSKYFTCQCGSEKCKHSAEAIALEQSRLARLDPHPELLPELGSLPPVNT
Experiment: qHTS Assay for Inhibitors of Histone Lysine Methyltransferase G9a; also: nearly all actives have a fitted effect of over 75% in size
Conditions: G9a H3K9 monomethylation, AlphaScreen, 2 h; activity, negative = inhibition: at 59 µM (top of the series) unless noted
In short: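 Signal arises when biotinylated H3K9 peptide, once monomethylated, bridges streptavidin donor and antibody-captured acceptor beads. Enzyme at 20 nM was preincubated 15 min with test compounds; peptide 500 nM and SAM 20 uM then reacted for 2 h.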
% is scaled to controls: 0 for no effect and ±100 for the full control effect; potency is read from the fitted curve at half-maximal effect; tags tell the direction and shape of the fitted curve.

| Structure (SMILES) | Potency | activity, negative = inhibition |
| --- | --- | --- |
| COc1ccccc1N(CC(=O)NCCN1CCOCC1)S(=O)(=O)c1ccccc1 | inconclusive: 10 µM [inhibitor, partial curve, poor fit] | – |
| CCOCCCn1c(=N)c(C(N)=S)cc2c(=O)n3cccc(C)c3nc21 | inconclusive: 5.01 µM [inhibitor, single point] | – |
| CC(SCc1nc2sc3c(c2c(=O)[nH]1)CCCC3)C(=O)Nc1ccccn1 (stereo unspecified) | active: 50.1 µM | – |
| CCOC(=O)c1c(NC(=O)CSc2nnnn2CC)sc(C)c1C | inconclusive: 79.4 µM [inhibitor, single point] | – |
| O=c1/c(=C/c2ccc(O)c([N+](=O)[O-])c2)sc2nc3ccccc3n12 | inconclusive: 7.94 µM [inhibitor, full curve, poor fit] | – |
| CCOc1ccc(CCNC(=O)c2cc3sccc3n2C)cc1OCC | – | inconclusive: -63.4% [inhibitor] |
| Cc1nn(-c2ccc3nnc(C)n3n2)c(C)c1CCC(=O)Nc1ccc(OC(F)(F)F)cc1 | inactive | – |
| COc1ccc(N2CCC(CNC(=O)Nc3cccc(OC)c3)C2)cc1 (stereo unspecified) | inconclusive: 1.58 µM [inhibitor, full curve, poor fit] | – |
| O=C(O)/C=C/C(=O)c1ccc2c(c1)CCc1ccccc1-2 | – | inactive: -1.91% [at 2.33 µM] |
| CCOc1ccc(S(=O)(=O)N2CCOCC2)cc1NC(=O)CSC(=S)N1CCCC1 | inconclusive: 6.31 µM [inhibitor, single point] | – |
| CC(=O)c1ccc(NC(=O)c2ccc(-c3nc(COc4ccc(C)cc4)c(C)o3)cc2)cc1 | inconclusive: 7.08 µM [inhibitor, single point] | – |
| O=C(CN1C(=O)/C(=C2\SC(=S)N(C3CCS(=O)(=O)C3)C2=O)c2ccccc21)Nc1ccccc1 (stereo unspecified) | active: 25.1 µM | – |
| CN1CCN(c2ccc(NC(=S)NC(=O)c3cccc4c(Cl)cccc34)cc2)CC1 | inconclusive: 5.01 µM [inhibitor, partial curve, poor fit] | – |
| CCC(CC)c1nnc(NC(=O)c2cc([N+](=O)[O-])ccc2N2CCCCC2)s1 | inconclusive: 28.2 µM [inhibitor, single point] | – |
| C[N+]1(CC2COC(c3ccccc3)(C3CCCCC3)O2)CCCCC1 (stereo unspecified) | inconclusive: 1.78 µM [inhibitor, partial curve, poor fit] | – |
| CC1CCCCN1c1ccc(N)cc1C(N)=O (stereo unspecified) | inconclusive: 44.7 µM [inhibitor, partial curve, poor fit] | – |
| CCOC(=O)c1cc2c(=O)n3ccccc3nc2n(CC2CCCO2)c1=NC(C)=O (stereo unspecified) | inconclusive: 25.1 µM [inhibitor, single point] | – |
| O=C(NCCc1ccccc1)c1ccc2c(c1)OCO2 | inconclusive: 2.51 µM [inhibitor, partial curve, poor fit] | – |
| O=S(=O)(NCC(c1cccnc1)N1CCN(c2ccccc2)CC1)c1cc(F)ccc1F (stereo unspecified) | – | inconclusive: -78.5% [inhibitor] |
| CCOC(=O)CSc1nnc(-c2ccc(S(=O)(=O)N3CCOCC3)cc2)n1-c1ccccc1 | – | inactive: 5.86% [at 12.7 µM] |
| CCOc1ccc(OCCOc2ccc(/C=C/C(=O)O)cc2OCC)cc1 | inconclusive: 89.1 µM [inhibitor, partial curve, poor fit] | – |
| COc1ccccc1-c1cc(C(F)(F)F)nc(S(C)(=O)=O)n1 | inconclusive: 89.1 µM [inhibitor, single point] | – |

| Structure (SMILES) | Potency | activity, negative = inhibition |
| --- | --- | --- |
| O=C(CCn1c(=O)c2sccc2n(Cc2cccc(F)c2)c1=O)NCc1ccc2c(c1)OCO2 | inactive | – |
| CC1Cc2cc(S(=O)(=O)CCC(=O)Nc3ccc(F)c(Cl)c3)ccc2N1C(=O)C1CC1 (stereo unspecified) | inactive | – |
| COc1ccc(-c2[nH]ncc2-c2csc(C)n2)c(O)c1 | inconclusive: 28.2 µM [inhibitor, single point] | – |
| CCN1CCN(CC(=O)n2c3c(c4ccccc42)CC(C)CC3)CC1 (stereo unspecified) | inactive | – |
| O=C(Nc1ccc(Cl)cc1)Nc1ccc(N2CCOCC2)cc1 | – | inactive: -49.2% [at 12.7 µM] |
| Cc1cccc(-c2nc3c(c(=O)c4ccccc4n3C)c(=O)n2-c2ccccc2)c1 | inactive | – |
| COC(=O)CCc1c(C)[nH]c(C(=O)OCc2ccccc2)c1C | inconclusive: 39.8 µM [inhibitor, single point] | – |
| Cc1ccc(S(=O)(=O)N2CC=C(C(=O)NCc3ccc(F)cc3)CC2)cc1 | active: 22.4 µM | – |
| O=C(c1cc2ccccc2o1)N1CCN(Cc2ccc3c(c2)OCO3)CC1 | inconclusive: 17.8 µM [inhibitor, partial curve, poor fit] | – |
| CSc1nnc(NC(=O)c2nc(S(=O)(=O)Cc3ccccc3)ncc2Cl)s1 | active: 50.1 µM | – |
| N#CCCN(CCC#N)c1nnc(-c2ccccc2)s1 | inconclusive: 3.98 µM [inhibitor, single point] | – |
| Cc1ccc2[nH]c(=O)c(CNC(C)(C)C)cc2c1 | inconclusive: 89.1 µM [inhibitor, single point] | – |
| N#Cc1ccc(C23CC4(C2)[C@H](CN(Cc2ccc(-c5ccccc5)cc2)[C@@H]4c2ccccc2)C3c2ccc(C(F)(F)F)cc2)cc1 (stereo partly specified) | inconclusive: 3.55 µM [inhibitor, single point] | – |
| O=C1CSC(c2ccco2)N1 (stereo unspecified) | active: 79.4 µM | – |
| O=C(CCn1nc(-c2ccc(Cl)cc2)c2ccccc2c1=O)NCC1CCCO1 (stereo unspecified) | inconclusive: 11.2 µM [inhibitor, partial curve, poor fit] | – |
| CCOc1cc(NS(C)(=O)=O)c(OCC)cc1NC(=O)c1cccs1 | inconclusive: 50.1 µM [inhibitor, partial curve] | – |
| N#Cc1c(F)cccc1N1CCOCC1 | inconclusive: 0.224 µM [inhibitor, full curve, poor fit] | – |
| COc1cccc(C(=O)Nc2ccc(-c3cn4cccnc4n3)cc2)c1OC | inactive | – |
| c1ccc(Cn2c(NCc3ccco3)nc3ccccc32)cc1 | – | inconclusive: -61.1% [inhibitor] |
| COC(=O)C(O)C1C(C)(C)C(OC(C)=O)C2CC3=C4CC(=O)OC(c5ccoc5)[C@]4(C)CCC3[C@@]1(C)C2=O (stereo partly specified) | – | inactive: -6.57% [at 2.33 µM] |
| COC(=O)c1cn(NC(=O)C2CCCCC2)c(=O)c2ccccc12 | inconclusive: 0.316 µM [inhibitor, full curve, poor fit] | – |
| C#CCn1c(S(=O)(=O)Cc2ccc(F)cc2)nc(-c2ccccc2)c1-c1ccccc1 | inconclusive: 25.1 µM [inhibitor, partial curve, poor fit] | – |

| Structure (SMILES) | Potency | activity, negative = inhibition |
| --- | --- | --- |
| O=S(=O)(Cc1ccc(Cl)cc1)N1CCN(Cc2ccccc2)CC1 | inconclusive: 63.1 µM [inhibitor, partial curve, poor fit] | – |
| COc1cc(C(=O)N2CCN(CCc3ccccn3)CC2)cc(OC)c1OC | inconclusive: 20 µM [inhibitor, partial curve, poor fit] | – |
| CS(=O)(=O)Nc1ccccc1C(=O)N1CCN(c2ccccc2)CC1 | inconclusive: 25.1 µM [inhibitor, single point] | – |
| CCOc1ccc(N(CC(=O)NC2CC3CCC2C3)S(=O)(=O)c2ccccc2)cc1 (stereo unspecified) | inactive | – |
| CCn1ccc2cc(S(=O)(=O)N3CCC(C(=O)NCCc4ccc(C)cc4)CC3)ccc21 | inactive | – |
| CC(C)NC(=O)C(=O)NCc1ccccn1 | inconclusive: 79.4 µM [inhibitor, partial curve, poor fit] | – |
| CC1CCCN(C(=O)COC(=O)C2CCN(S(=O)(=O)c3ccc4c(c3)OCCO4)CC2)C1 (stereo unspecified) | inconclusive: 89.1 µM [inhibitor, partial curve, poor fit] | – |
| O=C(O)c1cc(-c2ccccc2)c(N2CCOCC2)s1 | active: 79.4 µM | – |
| CC(=O)NNc1nc2ccccc2s1 | inconclusive: 79.4 µM [inhibitor, single point] | – |
| O=C1Nc2ccc([N+](=O)[O-])cc2OC1CCN1CCN(Cc2ccccc2)CC1 (stereo unspecified) | inconclusive: 79.4 µM [inhibitor, single point] | – |
| O=C(NCCCN1CCN(c2ccc(F)cc2)CC1)Nc1ccc([N+](=O)[O-])cc1 | inconclusive: 8.91 µM [inhibitor, full curve] | – |
| CCN(CC)S(=O)(=O)c1ccc(N2CCOCC2)c(NC(=O)c2ccc(C#N)cc2)c1 | active: 11.2 µM | – |
| Cc1cc(OCC(=O)NC2CCN(C)CC2)ccc1[N+](=O)[O-] | inconclusive: 22.4 µM [inhibitor, partial curve, poor fit] | – |
| Cc1ccc2c(=O)cc(C(=O)Nc3ccc(S(=O)(=O)N4CCCCCC4)cc3)oc2c1C | inactive | – |
| O=C1C=C(c2cc(C(F)(F)F)cc(C(F)(F)F)c2)C[C@@H](c2ccc(Cl)cc2)C1 | – | inactive: 9.69% [at 2.33 µM] |
| COc1ccc(Cl)cc1NC(=O)Cn1cccc1 | inconclusive: 31.6 µM [inhibitor, partial curve, poor fit] | – |
| COc1ccc(-c2ccc(CCC(=O)O)n2-c2ccccc2OC)cc1 | inconclusive: 79.4 µM [inhibitor, single point] | – |
| CC(C)(C)c1ccc(/C=N/N2C(=O)CSC2=S)cc1 | inconclusive: 89.1 µM [inhibitor, single point] | – |
| CSc1ncc(Cl)c(C(=O)N(Cc2ccc(N(C)C)cc2)Cc2ccco2)n1 | active: 12.6 µM | – |
| Cc1ccc(C(=O)N2CCN(c3cccc(C)c3C)CC2)o1 | active: 70.8 µM | – |
| Cc1cc(C)c2sc(NNC(=O)c3ccc(S(=O)(=O)N4CCc5ccccc5C4)cc3)nc2c1 | inconclusive: 79.4 µM [inhibitor, single point] | – |
| CCOC(=O)CSC1=C(C#N)C(c2ccccc2OC)CC(=O)N1 (stereo unspecified) | inconclusive: 89.1 µM [inhibitor, single point] | – |
